The text below walks through data of paper PMC4336329 (PLoS ONE, 2015).

Among all 310,000 compounds or so, about 2,200 (0.71%) showed an effect of 50% or more. The effect is printed as a negative number. The list shows a part of the results.

The target in this test is human ether-à-go-go-related gene (hERG) potassium channel (human, UniProt Q12809). Briefly: primary screen, population patch clamp on CHO cells stably expressing hERG.
Sequence of human ether-à-go-go-related gene (hERG) potassium channel (Q12809 whole entry, looked up): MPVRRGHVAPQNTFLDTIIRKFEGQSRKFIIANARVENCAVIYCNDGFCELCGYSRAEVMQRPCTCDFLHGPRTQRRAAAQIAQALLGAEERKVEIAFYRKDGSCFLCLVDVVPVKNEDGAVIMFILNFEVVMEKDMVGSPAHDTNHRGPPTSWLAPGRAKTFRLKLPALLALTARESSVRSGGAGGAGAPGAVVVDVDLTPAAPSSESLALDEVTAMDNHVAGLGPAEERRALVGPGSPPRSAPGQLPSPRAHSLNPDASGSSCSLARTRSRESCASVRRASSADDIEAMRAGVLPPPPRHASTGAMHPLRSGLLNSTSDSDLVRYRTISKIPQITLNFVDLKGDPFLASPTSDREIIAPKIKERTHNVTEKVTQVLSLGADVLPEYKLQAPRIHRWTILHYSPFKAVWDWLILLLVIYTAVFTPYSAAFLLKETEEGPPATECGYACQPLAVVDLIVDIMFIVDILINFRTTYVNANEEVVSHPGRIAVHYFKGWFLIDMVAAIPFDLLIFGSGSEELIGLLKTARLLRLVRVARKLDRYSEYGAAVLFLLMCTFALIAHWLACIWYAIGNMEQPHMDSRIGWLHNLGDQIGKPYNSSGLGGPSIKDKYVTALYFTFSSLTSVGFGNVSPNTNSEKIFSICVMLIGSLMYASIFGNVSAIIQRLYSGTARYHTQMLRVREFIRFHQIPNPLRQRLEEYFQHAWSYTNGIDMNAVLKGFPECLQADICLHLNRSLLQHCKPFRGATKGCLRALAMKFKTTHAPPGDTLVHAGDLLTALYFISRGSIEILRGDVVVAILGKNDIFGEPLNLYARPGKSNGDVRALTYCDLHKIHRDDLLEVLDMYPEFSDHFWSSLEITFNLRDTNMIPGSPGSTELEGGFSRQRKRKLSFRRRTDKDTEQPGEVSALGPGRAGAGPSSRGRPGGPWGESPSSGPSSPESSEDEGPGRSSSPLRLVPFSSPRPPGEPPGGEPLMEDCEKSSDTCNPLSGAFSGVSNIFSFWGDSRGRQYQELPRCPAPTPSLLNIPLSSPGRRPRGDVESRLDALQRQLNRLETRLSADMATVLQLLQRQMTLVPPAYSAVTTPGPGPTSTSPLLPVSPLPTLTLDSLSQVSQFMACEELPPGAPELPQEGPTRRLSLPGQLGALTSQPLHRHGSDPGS
As for `CCN(CC)S(=O)(=O)c1cccc(NC(=O)CCNC(=O)c2ccccc2Cl)c1`, the “hERG current change (%, negative = inhibition) at 1uM” value was 2.47%.
Under `COc1ccc(/C=N/N2CCN(Cc3ccccc3)CC2)cc1` stands 13.9%.
In the case of `Cc1ccc(Nc2nc3ccccc3n3cnnc23)cc1Cl`, the “hERG current change (%, negative = inhibition) at 1uM” value is listed as 8.12%.
Under `CN(C)C=NC(=O)c1cn(-c2ccc(F)cc2)c(=O)c2ccccc12` stands 11.8%; under `COc1ccc(/C=C/CN2CCN(Cc3ccc(F)cc3)C(CCO)C2)cc1` (centres unmarked), -3.48%; under `CCOC(=O)N1CCN(C(=O)c2nc3ccccc3s2)CC1`, 9.38%.
Under `Cc1ccc(C(c2nnnn2Cc2ccccc2)N2CC=C(c3ccc(F)cc3)CC2)cc1` (centres unmarked) stands 10.5%; under `O=[N+]([O-])c1nn(-c2ccc3c(c2)OCCO3)n(O)c1=NC1CCN(Cc2ccccc2)CC1`, -1.18%; under `COc1ccc(CCNC(=O)C2CC3Cn4c(nc5cc(Cl)c(Cl)cc54)C3N2C)cc1` (centres unmarked), -11.4%.
For `COc1ccc(C2=Nn3c(nnc3-c3ccco3)SC2)cc1OC`, the “hERG current change (%, negative = inhibition) at 1uM” value is reported as -39.1%.
Consider `Cc1ccc(-c2nc(NC(=O)c3nn(C)cc3[N+](=O)[O-])sc2C)cc1`, for which the “hERG current change (%, negative = inhibition) at 1uM” value is 5.71%.
As for `COc1cccc(-n2c(SCC(=O)N3CCOCC3)nnc2-c2c[nH]c3ccccc23)c1`, the “hERG current change (%, negative = inhibition) at 1uM” value came to 7.5%.
With `CCN1C(=O)N(C)C2(c3ccccc3)N(C)C(=O)N(C)C12c1ccccc1` (centres unmarked), the “hERG current change (%, negative = inhibition) at 1uM” value amounted to 10.5%.
The figure for `Cc1ccc(/C=N/NC(=O)CNC(=O)Cc2ccccc2)o1` is -3.63%; for `Cc1nn(C)cc1CNC(=O)Nc1ccc(Br)cc1Cl` it is 12.5%; for `CCCS(=O)(=O)N1CCCC(C(=O)Oc2ccc(Cl)cc2)C1` (centres unmarked) it is 17.4%.
As for `CCN(CC)C(=O)CSc1nc2c(sc(=S)n2-c2ccc(C)cc2C)c(=O)[nH]1`, the “hERG current change (%, negative = inhibition) at 1uM” value is 16.1%.
Regarding `Br.CCOC(=O)c1ccc(N=c2scc(C)n2CC)cc1`, the “hERG current change (%, negative = inhibition) at 1uM” value is reported as 17.4%.
As to `CCCn1c(SCC(=O)Nc2ccc(OC)cc2)nnc1-c1ccncc1`, the “hERG current change (%, negative = inhibition) at 1uM” value was determined as 11.2%.
As to `COc1cc(C2C(C(=O)OC(C)C)=C(C)Nc3[nH]c(=O)[nH]c(=O)c32)ccc1O` (centres unmarked), the “hERG current change (%, negative = inhibition) at 1uM” value came to 11.2%.
In the case of `COc1ccc(OC)c(-c2c[n+](=O)c3c(n2[O-])CCCC3)c1`, the “hERG current change (%, negative = inhibition) at 1uM” value is given as 16.2%.
Under `CNC(=O)c1cc(S(=O)(=O)Nc2ccc3c(c2)OCO3)ccc1C` stands 7.73%.
`CC[n+]1c(C)sc2cc(OC)ccc21.[I-]`: the “hERG current change (%, negative = inhibition) at 1uM” value is listed as 14.9%.
Under `Cc1cccc(NC(=O)Nc2ccc(C)cc2Br)c1` stands 15.3%.
Under `CN(C[C@H](Cc1ccccc1)N(CCN(CCc1ccccc1)N=O)N=O)N=O.[Na+]` stands -0.0668%; under `CN(C)S(=O)(=O)N1CCC(Oc2cccc(C(=O)N3CCCCCC3)c2)CC1`, 8.91%; under `CC(=O)Nc1ccc(C)cc1NC(C)=O`, 16.8%.
The figure for `Cc1ccc(N2C(=O)C3CC3C2=O)cc1` (centres unmarked) is -0.374%; for `Cn1c(SCC(=O)c2cc3ccccc3o2)nnc1-c1ccccc1` it is 5.39%.
Take `CC1CCN(C(=O)CSc2nc(N)cc(N)n2)CC1`: the “hERG current change (%, negative = inhibition) at 1uM” value is listed as 0.706%.
Under `O=C(COC(=O)CCc1ccccc1)NCc1ccccc1` stands 12.3%.
On to `CC(=O)c1ccc(NC(=O)C(C)n2c3ccccc3c3nc(=O)cc(C)n32)cc1` (centres unmarked), for which the “hERG current change (%, negative = inhibition) at 1uM” value came out at 6.36%.
Under `NC(=O)C1(N2CCCCC2)CCN(C(=O)c2cccs2)CC1` stands 8.02%.
The figure for `O=c1[nH]c(Cc2ccc(F)cc2)nc2scc(-c3ccc(F)cc3)c12` is 15.4%; for `COCCn1c(SCC(=O)Nc2sc(C)c(C)c2C#N)nnc1C(C)C` it is 5.85%; for `Cc1cc(C)n2nc3nc(N4CCCC4)nc(-c4ccccc4)c3c2n1` it is 9.42%.
Under `Cc1cc(-c2ccc(C)c(S(=O)(=O)Nc3ccc(S(N)(=O)=O)cc3)c2)on1` stands 4.46%; under `CC1(C)C(C=C(Cl)Cl)C1C(=O)Nc1ccc([N+](=O)[O-])cc1` (centres unmarked), 17.1%.
As for `C/C(=N\NC(=O)c1nn(C)c(C)c1Br)c1ccc(NC(=O)c2ccc(C)s2)cc1`, the “hERG current change (%, negative = inhibition) at 1uM” value was -0.245%.
Under `CSc1ccccc1NC(=O)CN1CCCCC1C` (centres unmarked) stands 9.26%.
Under `O=C(CSc1ncn[nH]1)NN(c1ccccc1)c1ccccc1` stands 5.19%; under `CC(=O)/C(=N/Nc1ccccc1C)N1CCOCC1.Cl`, 6.85%.
The figure for `COc1ccc(C)cc1NC(=O)C(OC(=O)c1ccc(Cl)c(S(=O)(=O)N(C)c2ccccc2)c1)c1ccccc1` (centres unmarked) is 0.968%.
Regarding `FC(F)(F)c1ccc(-n2ccnc2)nc1`, the “hERG current change (%, negative = inhibition) at 1uM” value was found to be 3.76%.
